Source: the supplement of paper PMC7826260
The other results are listed elsewhere or left out. Each Rep nickase domain was tested in vitro on the same pool of single strands for 1 h at 37 °C with 3 µM enzyme; only the middle of the 90-letter strands is printed. A value is the log2 ratio of uncut reads to the pool without enzyme; more negative means more cut, near 0 not cut, and no call is made. Counts are relative to all reads; where an enzyme cuts many sequences, the uncut ones exceed 0.

Experiments:
Test in all cases: uncleaved DNA left, log2 of reads against the no-enzyme library (log2 ratio); higher = less cleavage (more negative = more Rep cleavage of the k-mer); sequences stand for … in CTCGTCCG…ACCGGAGA
[1] = system: T1, Rep nickase domain of Muscovy duck circovirus
T1 sequence (Rep 1-111, printed without the tag): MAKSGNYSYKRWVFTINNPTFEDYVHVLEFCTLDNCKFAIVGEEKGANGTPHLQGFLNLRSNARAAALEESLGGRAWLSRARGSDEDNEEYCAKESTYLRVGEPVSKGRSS
Experimental: (§1)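 A pool of 90-nt single-stranded DNAs with seven random bases just before the constant AC of the nick site (name = the seven bases) was cut by 3 µM recombinant His6-SUMO-tagged Rep nickase domain (300 nM DNA, 50 mM HEPES pH 8.0, 50 mM NaCl, 1 mM MnCl2, 1 h, 37 °C, three replicates). Uncut DNA was amplified and sequenced.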

[2] = system: T2, Rep nickase domain of banana bunchy top virus
T2 sequence (Rep 1-94, printed without the tag): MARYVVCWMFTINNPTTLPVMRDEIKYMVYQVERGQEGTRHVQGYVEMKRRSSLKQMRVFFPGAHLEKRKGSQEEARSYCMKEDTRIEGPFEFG
Experimental: as §1

[3] = system: T3, Rep nickase domain of cabbage leaf curl virus
T3 sequence (Rep 1-116, printed without the tag): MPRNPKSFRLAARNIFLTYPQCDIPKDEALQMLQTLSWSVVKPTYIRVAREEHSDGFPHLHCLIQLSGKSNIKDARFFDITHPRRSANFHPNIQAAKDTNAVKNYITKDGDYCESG
Experimental: as §1

[4] = system: T4, Rep nickase domain of chickpea chlorotic dwarf virus
T4 sequence (Rep 1-124, printed without the tag): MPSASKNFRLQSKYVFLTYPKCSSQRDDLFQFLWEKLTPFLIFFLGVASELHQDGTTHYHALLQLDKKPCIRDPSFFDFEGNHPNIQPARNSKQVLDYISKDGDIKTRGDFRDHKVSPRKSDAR
Experimental: as §1

[5] = system: T5, Rep nickase domain of faba bean necrotic yellows virus
T5 sequence (Rep 1-98, printed without the tag): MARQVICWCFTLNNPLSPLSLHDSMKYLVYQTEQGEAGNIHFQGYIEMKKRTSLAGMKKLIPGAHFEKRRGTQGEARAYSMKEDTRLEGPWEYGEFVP
Experimental: as §1

[6] = system: T6, Rep nickase domain of maize striate mosaic virus
T6 sequence (Rep 1-117, printed without the tag): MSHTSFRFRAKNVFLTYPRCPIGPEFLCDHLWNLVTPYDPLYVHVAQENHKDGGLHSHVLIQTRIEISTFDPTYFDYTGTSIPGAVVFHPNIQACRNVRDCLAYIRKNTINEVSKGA
Experimental: as §1

[7] = system: T7, Rep nickase domain of porcine circovirus 2
T7 sequence (Rep 2-116, printed without the tag): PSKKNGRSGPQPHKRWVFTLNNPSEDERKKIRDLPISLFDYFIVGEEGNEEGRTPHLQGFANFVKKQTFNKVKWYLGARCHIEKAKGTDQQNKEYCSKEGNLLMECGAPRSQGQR
Experimental: as §1

[8] = system: T8, Rep nickase domain of tomato yellow leaf curl virus
T8 sequence (Rep 1-136, printed without the tag): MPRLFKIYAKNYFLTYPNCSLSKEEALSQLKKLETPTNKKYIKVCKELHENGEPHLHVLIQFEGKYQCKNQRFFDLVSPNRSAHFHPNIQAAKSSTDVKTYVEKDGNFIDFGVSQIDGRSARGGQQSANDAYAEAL
Experimental: as §1

[9] = system: T9, Rep nickase domain of wheat dwarf virus
T9 sequence (Rep 1-137, printed without the tag): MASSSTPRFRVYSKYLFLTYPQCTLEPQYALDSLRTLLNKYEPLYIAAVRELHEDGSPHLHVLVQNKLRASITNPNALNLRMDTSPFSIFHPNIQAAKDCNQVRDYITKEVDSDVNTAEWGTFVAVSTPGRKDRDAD
Experimental: as §1

Sequence | uncleaved DNA left (log2) [1] | uncleaved DNA left (log2) [2] | uncleaved DNA left (log2) [3] | uncleaved DNA left (log2) [4] | uncleaved DNA left (log2) [5] | uncleaved DNA left (log2) [6] | uncleaved DNA left (log2) [7] | uncleaved DNA left (log2) [8] | uncleaved DNA left (log2) [9]
CGATAGA | 0.0728 | 0.0518 | -0.0384 | 0.232 | 0.127 | -0.205 | 0.0728 | 0.0264 | 0.0958
GTAGACC | 0.115 | 0.117 | 0.422 | 1.01 | 0.0195 | 1.17 | 0.159 | 0.133 | 0.256
CGGATCC | 0.0495 | 0.192 | 0.214 | 0.747 | 0.0565 | 0.7 | 0.217 | 0.184 | 0.175
CCGTTTC | -0.205 | -0.144 | -0.00133 | -0.248 | -0.272 | -0.527 | -0.206 | -0.292 | -0.0729
TGGAACT | 0.125 | -0.00622 | 0.691 | 0.48 | -0.0556 | 1.89 | 0.152 | 0.125 | 0.181
CAGTTGA | -0.0792 | -0.15 | -0.0921 | -0.572 | -0.101 | -1.11 | -2.53 | -0.167 | -0.123
TTAAACT | 0.00203 | -0.0248 | -0.114 | -2.67 | -0.0669 | -0.5 | -0.399 | 0.0174 | -0.128
GCCGGAC | 0.109 | -0.0899 | 0.703 | 1.72 | 0.0211 | 2.09 | 0.0203 | -0.00178 | 0.0306
CAGTGTC | -0.0673 | -0.0904 | -0.371 | -0.483 | -0.232 | -0.979 | -2.67 | -0.0271 | 0.156
GATCTAG | 0.164 | 0.0454 | -0.368 | -0.375 | 0.136 | -0.847 | 0.224 | 0.163 | 0.116
TCATAGT | -3.24 | -0.0434 | -2.34 | -2.56 | 0.00536 | -1.21 | -3.45 | -0.0708 | -0.254
ATCCGGA | -0.0307 | -0.122 | 0.126 | 0.495 | 0.0974 | -0.00259 | 0.0663 | -0.146 | 0.0386
TCCATGT | -0.161 | -0.118 | -0.134 | -0.405 | -0.121 | -0.996 | -0.0866 | -0.0391 | -0.176
ACATTAC | -0.0172 | 0.0838 | -0.313 | -1.7 | 0.021 | -0.922 | 0.0811 | -0.0956 | -0.0408
AGACAAC | -0.0111 | 0.0535 | 0.41 | 0.349 | 0.0289 | 1.35 | 0.112 | 0.0118 | 0.0546
